According to the RNAGym collection of RNA variant scans (doi:10.1093/nar/gkz1192):
Read counts are not given, so values of variants with three or more changes are uncertain.

B1: CPEB3 Ribozyme (parent)
chain: UAACAGGGGGCCACAGCAGAAGCGUUCACGUCGCAGCCCCUGUCAGAUUCUGGUGAAUCUGCGAAUUCUGCUGUAUAUCUC

Variants of: B1
Assay: self-cleavage, relative activity (ratio to wild type); higher = more cleavage; in vitro, sequencing
In short: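 Barcoded CPEB3 ribozyme mutants, produced by rounds of error-prone PCR, self-cleaved while being transcribed with T7 RNA polymerase for 5 hours at 37°C and during a subsequent 15 min DNase I step before EDTA was added. Sequencing of template-switched cDNA on Illumina gave cleaved and total reads, and DNA sequencing assigned barcodes to variants. Each variant's relative activity is its cleaved/total read fraction divided by the unmutated ribozyme's fraction, averaged across three batches. A variant needed a minimum of 5 reads.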

Variant | self-cleavage
A18U A20G A35U A75G | 0.11
A18U A20G A45U A47C U49C U72C | 0.28
A18U A20G A75U | 0.47
A18U A20G C23A U25G A57U A77U | 0.07
A18U A20G C23U A64G U69C | 0.11
A18U A20G C23U U58C | 0.06
A18U A20G C29U A65U U67C | 0.21
A18U A20G G24A G53C U66A | 0.12
A18U A20G G30U C40U G46U | 0.07
A18U A20G U25C U74C | 0.59
A18U A20G U26A U58A | 0.24
A18U A20G U41A U43C U58C A65G U80A | 0.03
A18U A20G U43G C59U U66C U80A | 0.04
A18U A20G U48G A56G U80A | 0.15
A18U A20G U49A G63A U69C U80C | 0.24
A18U A20G U51C G52A U72A C79U | 0.78
A18U A20G U60C U69A | 0.54
A18U A20G U69C U72A U76C A77G | 0.09
A18U A20U A21G G70A U72C U74A | 0.04
A18U A20U A35C U76A | 0.19
A18U A20U A35G U69C | 0.36
A18U A20U A47C | 0.2
A18U A20U A47G U80C | 0.37
A18U A20U A56G U80A | 0.28

Variant | self-cleavage
A18U A20U C23G U26A | 0.23
A18U A20U U25C G52A | 0.09
A18U A20U U26A U41A U54G C59G | 0.07
A18U A20U U31C A47G U69C | 0.06
A18U A20U U41C | 0.12
A18U A20U U41C A45U U51C C81A | 0.06
A18U A20U U41G G55A A64G | 0.03
A18U A20U U43A | 0.4
A18U A20U U43C U80C | 0.19
A18U A20U U54A | 0.09
A18U A20U U72C | 0.21
A18U A21C A45G A47U C71A | 0.07
A18U A21C A45U U67A | 0.09
A18U A21C U41A A45U C50A A64G U67A | 0.12
A18U A21G A28C A45G U60C A64G U74C | 0
A18U A21G A28G | 0.16
A18U A21G A28G A65C | 0.18
A18U A21G A28G C29U A56G | 0.08
A18U A21G A35G U41C U60C A75U | 0.22
A18U A21G A35U U54C U58A U69C | 0.11
A18U A21G A45U G63U U72A | 0.05
A18U A21G A47U A56G U60G | 0.14
A18U A21G A64G U69C | 0.18
A18U A21G A65G U66C U80C | 0.08

Variant | self-cleavage
A18U A21G C23A G36U | 0.13
A18U A21G C32U A57G A75U | 0.35
A18U A21G C40A | 0.24
A18U A21G C79A | 0.08
A18U A21G G24C U67A U72A | 0.11
A18U A21G G33A A35G U41C | 0.35
A18U A21G G36C A47C U54C | 0.05
A18U A21G G42U | 0.32
A18U A21G G61U | 0.12
A18U A21G U25A C34G A56C U72A U80C | 0.02
A18U A21G U25C U49C A56G U67C | 0.05
A18U A21G U26C C62U U66C U74A | 0.11
A18U A21G U41A U51C G70U U78C | 0.1
A18U A21G U43A A64C | 0.14
A18U A21G U43C A57G G73A | 0.25
A18U A21G U43C U54G | 0.13
A18U A21G U58C U60A | 0.19
A18U A21G U58C U67A A75G | 0.05
A18U A21G U66C U74C | 0.37
A18U A21G U72A | 0.14
A18U A21G U72C | 0.43
A18U A21U A28C | 0.07
A18U A21U A47U | 0.21
A18U A21U C32A U60A C62A | 0.05

Variant | self-cleavage
A18U A21U U25C C40G U76A | 0.17
A18U A21U U25C U31C U69A | 0.24
A18U A21U U25C U49A | 0.06
A18U A21U U49C U69C | 0.12
A18U A21U U69C | 0.14
A18U A28C A35G U41C | 0.25
A18U A28C A56G U69C | 0.08
A18U A28C C29U A35G U43C A45G C62U | 0.05
A18U A28C C39U C50A A75U | 0.07
A18U A28C G55U U69A U80A | 0.58
A18U A28C U49A G53C C62A U67C G70A | 0.04
A18U A28C U51A A64G U72A C79U | 0.06
A18U A28C U58C U67A U74C | 0.11
A18U A28C U72A | 0.15
A18U A28G A35G C37A G61A U67C | 0.06
A18U A28G A35U U41A A75U | 0.16
A18U A28G A45G U51C G52U C62U A65U | 0.08
A18U A28G A75C A77G U78A | 0.52
A18U A28G A77G C79U | 0.11
A18U A28G C71U | 0.29
A18U A28G G30U A56G U67A | 0.08
A18U A28G G33A U43A U60A | 0.14
A18U A28G G33C U41A U74A A75G | 0.06
A18U A28G G33C U41C C59A A65U | 0.11

Variant | self-cleavage
A18U A28G U31C | 0.22
A18U A28G U41C U43C A47G | 0.47
A18U A28G U41G | 0.25
A18U A28G U43C G63A U69A G73U A77U | 0.89
A18U A28G U51C A77G | 0.31
A18U A28G U51C U60C | 0.1
A18U A28G U54A U76A | 0.22
A18U A28G U76C | 0.54
A18U A28U A57G U60C A75U | 0.14
A18U A28U A64U | 0.15
A18U A28U A65G U69C U74C U78C | 0.13
A18U A28U A65U | 0.36
A18U A28U A77G U78G | 0.15
A18U A28U G42A A57G C62A A64U | 0.06
A18U A28U U31C A56G | 0.24
A18U A28U U31C A57G | 0.08
A18U A28U U31G | 0.13
A18U A28U U41A | 0.2
A18U A28U U43C U69C | 0.14
A18U A28U U51C A56G C59A | 0.11
A18U A28U U51C A57G U60C A77G | 0.15
A18U A28U U54C A65G | 0.11
A18U A28U U58A C59A | 0.14
A18U A28U U72A | 0.18

Variant | self-cleavage
A18U A35C U72C | 0.14
A18U A35G A56U C68A | 0.39
A18U A35G A57G U58C A75U | 0.45
A18U A35G C37A A56G G61A | 0.16
A18U A35G C37U U60C U80C | 0.32
A18U A35G G36A U41C A65G U74C | 0.29
A18U A35G U41A A77U | 0.14
A18U A35G U41G | 0.4
A18U A35G U41G U48A | 0.34
A18U A35G U43A | 0.92
A18U A35G U43A G61A U78A | 0.53
A18U A35G U48C U51A | 0.48
A18U A35G U49C U60A | 0.15
A18U A35G U51A U58C U80C | 0.48
A18U A35G U51G | 0.87
A18U A35G U54C | 0.72
A18U A35G U66C | 0.38
A18U A35G U67C | 0.15
A18U A35U A65G | 0.28
A18U A35U A77U | 0.1
A18U A35U C39A | 0.29
A18U A35U G52A U66A U69C U72C | 0.1
A18U A35U U41C A65G | 0.42
A18U A35U U43C | 0.15

Variant | self-cleavage
A18U A35U U43C U54C U74C | 0.05
A18U A35U U54G A56G G61A U78A | 0.05
A18U A35U U69C U74A U80C | 0.13
A18U A35U U74C | 0.28
A18U A45C A75G | 0.33
A18U A45G A47G | 0.19
A18U A45G A47G U67C | 0.15
A18U A45G A47U U49A | 0.28
A18U A45G A56G | 0.25
A18U A45G A56G U60A | 0.56
A18U A45G A56U U72A A77G U78C | 0.17
A18U A45G A64G | 0.44
A18U A45G C50U U60A | 0.13
A18U A45G U48C U58C | 0.14
A18U A45G U49A | 0.46
A18U A45G U60A A64G U66A | 0.4
A18U A45G U60C C71G | 0.11
A18U A45G U67A | 0.18
A18U A45U A47G U69A | 0.54
A18U A45U A47U A56G | 0.06
A18U A45U A64G | 0.14
A18U A45U A64U | 0.18
A18U A45U C62A | 0.22
